Common to all, as to test: Primary Screen for Target Class Profiling of Small Molecule Inhibitors of Methyltransferases
For assay [1], the target named is Glycine N-methyltransferase (Homo sapiens) (UniProt Q14749). The following applies: purified enzyme, MTase-Glo SAH luminescence; measured here: GNMT inhibition; at 40 µM; stronger effect = lower value. An outline of the steps: (§1)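 Each enzyme was assayed with SAM and its substrate. SAH formation detected by MTase-Glo luminescence; single-point 40 uM screen[…].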

Assay [2] has as its target Guanidinoacetate N-methyltransferase (Homo sapiens) (UniProt Q14353). The following applies: purified enzyme, MTase-Glo SAH luminescence; measured here: GAMT inhibition; at 40 µM; stronger effect = lower value. The gist of the method: as §1
Assay [3] addresses Histamine N-methyltransferase (Homo sapiens) (UniProt P50135). To be noted: purified enzyme, MTase-Glo SAH luminescence; measured here: HNMT inhibition; at 40 µM; stronger effect = lower value. An outline of the steps:
as §1

The target in assay [4] is Nicotinamide N-methyltransferase (Homo sapiens) (UniProt P40261). The following applies: purified enzyme, MTase-Glo SAH luminescence; measured here: NNMT inhibition; at 40 µM; stronger effect = lower value. The gist of the method:
as §1

Assay [5] deals with Phenylethanolamine N-methyltransferase (Homo sapiens) (UniProt P11086). To be noted: purified enzyme, MTase-Glo SAH luminescence; measured here: PNMT inhibition; at 40 µM; stronger effect = lower value. The gist of the method:
as §1

The record followed here is PubChem BioAssay AID1745853 (National Center for Advancing Translational Sciences (NCATS), 2022).

Some of the results follow. Shown are side measurements of this screen, not its main read-out; they come without a call.
% is scaled to controls: 0 for no effect and ±100 for the full control effect.

As for `Cc1nc(N)ncc1-c1nc(N2CCOCC2)c2sc(C(C)(C)O)cc2n1`, the activity change, negative = inhibition in assay [1] is -12.6%; in assay [2] it was -5.02%; in assay [3], -7.6%; in assay [4], -26%; in assay [5], -14.6%.
As for `COc1ccc(-c2nc3cnccn3c2NCCC(=O)N2CCCC(C)C2)cc1` (stereo not given), the activity change, negative = inhibition is -13.8% in assay [1]; -12.5% in assay [2]; -17.2% in assay [3]; -25% in assay [4]; -10.8% in assay [5].
On the same counts, the results for `OC[C@@]1(O)CO[C@H](OC[C@H]2O[C@@H](OC(CCCCc3ccc(O)cc3)CCc3ccc(O)cc3)[C@H](O)[C@@H](O)[C@@H]2O)[C@@H]1O` (stereo not given in full) are 1.41%, 9.16%, 10.4%, -2.46% and 8.6%.
Taken in the same sequence, the figures for `CCc1ccc(S(=O)(=O)c2nnn3c2nc(N2CCN(C)CC2)c2cc(Cl)ccc23)cc1` were -25.7%, 0.051%, -5.07%, -8.86% and -6.28%.
For the compound `CCCN1C(=O)c2cc(C(=O)NCCCOC)nn2CC1(C)C(=O)NC1CCCC1` (stereo not given), the activity change, negative = inhibition amounted to 4.82% in assay [1]; 0% in assay [2]; 4.25% in assay [3]; 1.43% in assay [4]; 3.08% in assay [5].
Taken in the same sequence, the figures for `N#Cc1cc(-c2n[nH]c(-c3ccncc3)n2)ccn1` were 1.85%, 6.37%, 12.1%, -4.95% and 8.48%.
As to `CCn1ccnc1CC1COc2ccccc2O1` (stereo not given), the activity change, negative = inhibition in assay [1] is -3.87%; in assay [2], 1.67%; in assay [3] it was -1.91%; in assay [4], -10.1%; in assay [5], -0.513%.
For the compound `CC1(C(=O)NC2CCCCCCC2)Cn2c(cc3occc32)C(=O)N1CCc1ccc(Cl)cc1` (stereo not given), the activity change, negative = inhibition is -6.78% in assay [1]; 1.37% in assay [2]; -0.637% in assay [3]; -5% in assay [4]; -2.77% in assay [5].
Take `COc1ccccc1CNS(=O)(=O)c1cc2c(cc1Cl)n(C)c(=O)n2C`: the activity change, negative = inhibition in assay [1] was -1.48%; in assay [2] it was 4.03%; in assay [3] it was -5.01%; in assay [4], -8.18%; in assay [5], -5.08%.
For `CC(C)NC(=O)c1ccc2c(=O)n(Cc3ccccc3)c3nn(Cc4cccc(F)c4)c(=O)n3c2c1`, the activity change, negative = inhibition in assay [1] stood at 9.39%; in assay [2] it was 0.48%; in assay [3], 7.43%; in assay [4] it was 11.7%; in assay [5], 9.4%.
As for `CCCN1C(=O)c2c(C(=O)NCc3ccc(CC)cc3)ncn2CC1(C)C(=O)NCc1ccc(C)cc1` (stereo not given), the activity change, negative = inhibition in assay [1] was 2.16%; in assay [2], 0%; in assay [3] it was 3.12%; in assay [4], -2.08%; in assay [5], 8.05%.
`O=C(NCc1ccccc1Cl)c1ccc2c(=O)nc3c(-c4cccc(F)c4)n[nH]n3c2c1`: the activity change, negative = inhibition in assay [1] is -10%; in assay [2], 3.87%; in assay [3], -1.2%; in assay [4], -14.1%; in assay [5], -4.49%.
On the same counts, the results for `CC1(C(=O)NC2CCCC2)Cn2c(ccc2-c2ccco2)C(=O)N1CCCc1ccccc1` (stereo not given) are -11.7%, 1.99%, 1.99%, -3.91% and -13.4%.
On the same counts, the results for `CC(=O)N1CCN([C@H]2[C@@H]3OC[C@@H](O3)[C@@H](NCc3ccccc3O)[C@@H]2O)CC1` are -2.8%, -7.24%, -0.968%, -5.03% and 0.837%.
On the same counts, the results for `CCOC(=O)c1cc2n(n1)CC(C)(C(=O)NCc1ccc(C)cc1)N(c1cccc(Cl)c1C)C2=O` (stereo not given) are 7.66%, 0.639%, 4.24%, 2.69% and 5.79%.
Consider `CCCn1c(C)cnc1C1CCNC1` (stereo not given), for which the activity change, negative = inhibition in assay [1] is -7.26%; in assay [2] it was -7.66%; in assay [3], -21.3%; in assay [4], -11.4%; in assay [5], -3.85%.
On the same counts, the results for `CCOc1ccc(C2c3cccn3-c3sc4c(c3CN2C(=O)Nc2ccc(C)c(F)c2)CCCC4)cc1` (stereo not given) are 3.91%, 3.46%, 0.878%, -0.166% and 5.72%.
In the case of `COc1ccc(CCN(CC2CCN(C)CC2)C(=O)C2CC23CCC3)cc1` (stereo not given), the activity change, negative = inhibition in assay [1] is 1.53%; in assay [2], 2.92%; in assay [3], 3.23%; in assay [4], -3.33%; in assay [5], 16.6%.
Turning to `Cc1ccc(OCC(=O)c2ccc3c(c2)N(CCCC(=O)N2CCCC2)C(=O)CO3)cc1C`, the activity change, negative = inhibition in assay [1] was -3.48%; in assay [2], -0.182%; in assay [3], -3.58%; in assay [4] it was -2.83%; in assay [5], -1.22%.
On to `OC1(CN2CCC(COc3noc4cccc(O[C@@H]5CCOC5)c34)CC2)CCOCC1`, for which the activity change, negative = inhibition is -5.65% in assay [1]; -7.77% in assay [2]; -0.991% in assay [3]; -41.1% in assay [4]; -2.55% in assay [5].
Taken in the same sequence, the figures for `CC1(C)C(=O)N2c3ccccc3C(O)(CC(C(=O)O)n3cnc4ccccc4c3=O)C2N1O` (stereo not given) were 3.68%, 1.11%, 7.92%, -11.3% and -0.758%.
In the case of `O=C(NCCN1CCCCC1)[C@H]1C[C@@H](O)[C@H](O)[C@@H]2N=C(Nc3ccc4c(c3)OCO4)S[C@@H]21`, the activity change, negative = inhibition was 1.21% in assay [1]; 3.81% in assay [2]; -3.86% in assay [3]; -3.32% in assay [4]; 16.5% in assay [5].
Consider `Cn1cc(-c2ccc3c(n2)CN(Cc2ccc(F)cc2)C(=O)CO3)cn1`, for which the activity change, negative = inhibition in assay [1] was -11.6%; in assay [2], -2.56%; in assay [3], -6.74%; in assay [4], -7.68%; in assay [5], -8.22%.
As to `Cc1ncnc(N2CCN(C(=O)C3CCN(C(=O)C4CC4)CC3)CC2)c1C`, the activity change, negative = inhibition was -0.624% in assay [1]; 0.685% in assay [2]; 2.29% in assay [3]; 1.65% in assay [4]; 1.57% in assay [5].
On the same counts, the results for `Cc1c(F)cc(C(=O)NC2CC2)cc1-c1ccc(C(=O)NCC(C)(C)C)cn1` are 5.72%, 5.75%, 7.39%, -12.4% and -3.34%.
On the same counts, the results for `CC(C)Cn1c(=O)c2ccc(C(=O)NC(C)C)cc2n2c(=O)n(Cc3ccccc3F)nc12` are 6.19%, 0%, -1.17%, 0.357% and 3.45%.
On the same counts, the results for `CC1CC(C)CN(S(=O)(=O)c2ccc3c(c2)oc(=O)n3CC(=O)N2CCCC2)C1` (stereo not given) are -4.47%, 0%, -2.92%, -1.14% and -12%.
In the case of `O=C(c1ccccc1)N1CCCN(c2nc3ncccc3o2)CC1`, the activity change, negative = inhibition in assay [1] was -3.58%; in assay [2], -3.04%; in assay [3], -10.4%; in assay [4] it was -6.11%; in assay [5], -3.73%.
Taken in the same sequence, the figures for `O=C(CCc1nnc2n(Cc3ccc(F)cc3)c(=O)c3ccccc3n12)NCCCN1CCCC1=O` were -5.83%, 0%, 3.9%, 6.46% and 0.319%.
Taken in the same sequence, the figures for `CCCNC(=O)N1CC(Oc2ccc(-c3nc(C)no3)cc2)C1` were -6.66%, -10.2%, -6.22%, -14.7% and -12.3%.
For `COC(=O)C1=COC(OC2OC(CO)C(O)C(O)C2O)C2C(COC(=O)/C=C/c3ccc(O)cc3)C(O)C(O)C12` (stereo not given), the activity change, negative = inhibition in assay [1] is 0%; in assay [2], 1.81%; in assay [3], 3.58%; in assay [4] it was -10.6%; in assay [5] it was 4.83%.
On the same counts, the results for `CCn1cc(C(=O)O)c(=O)c2cc3c(cc21)OCO3` are -11%, -1.15%, -2.28%, -9.93% and -0.668%.
With `O=C(CSc1nnc2n(Cc3ccccc3)c(=O)c3ccccc3n12)NC1CCCCC1`, the activity change, negative = inhibition in assay [1] is -4.15%; in assay [2] it was 0%; in assay [3], 2.71%; in assay [4], -16.6%; in assay [5], 0.202%.
As to `COc1ccc(CNC(=O)C[C@@H]2O[C@H](CNCc3cccc(Cl)c3)[C@@H](O)[C@H]2O)cc1`, the activity change, negative = inhibition in assay [1] is -0.803%; in assay [2], -6.35%; in assay [3], 0.007%; in assay [4] it was -7.22%; in assay [5] it was -4.41%.
Taken in the same sequence, the figures for `O=C1Nc2nc(-c3c(O)cccc3OCC3CC3)cc([C@@H]3CCCNC3)c2CO1` were -4.75%, 5.29%, -9.67%, -35% and -11.2%.
On the same counts, the results for `CN1c2cccnc2CN(Cc2ccccc2Cl)CC[C@H]1CO` are -3.2%, -3.24%, -21.3%, -11% and -3.96%.
Taken in the same sequence, the figures for `Cn1nccc1OCc1cn2c(=O)n(C)cc(-c3ccc(F)cc3)c2n1` were -5.51%, -6.19%, 0.909%, -6.72% and -1.47%.
For the compound `Cc1[nH]ccc1C(=O)N(CCN1CCCCC1)CC1CCCN(C2CCCC2)C1` (stereo not given), the activity change, negative = inhibition in assay [1] was -0.084%; in assay [2] it was -1.21%; in assay [3], -6.99%; in assay [4] it was -4.03%; in assay [5], 4.63%.
